Laboratory results: the supplement of paper PMC11417369
± gives the standard deviation of the averaged measurements. The list shows a part of the results.

test system: PfAP2-EXP AP2 domain (GST-tagged); assay: gcPBM binding intensity (ln(normalized median fluorescence intensity)); higher = stronger DNA binding
How it was run: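 An Agilent 4 × 180k array carrying primer-extended double-stranded 36-bp intergenic genomic probes and negative controls received GST-tagged P. falciparum DNA-binding domains expressed in E. coli, about 25 μg on average, for 1 h. The binding buffer contained 1× PBS, 1% milk, 0.2 mg/ml BSA, 0.5% salmon testes DNA and 0.03% Triton X-100. Binding intensity is the top Masliner-normalised natural-log median intensity across replicate spots of either probe orientation, read after Alexa488 anti-GST antibody staining and a 488 nm scan.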

Row | Sequence | gcPBM binding intensity (ln)
1 | GTTATAGAAGCATTCACACACACACGGACATACACA [CACACA_site6801] | 8.86 ± 0.43
2 | TTTTTTTATAAAAATGAACACACACCGATATATATA [CACACA_site9161] | 8.98 ± 0.34
3 | TATTATAATATATTTGTGCACATAATACCTCCGCTA [GTGCAC_site9570] | 9.03 ± 0.11
4 | AATATATACATATGTATGCACTTTTTAATTATTTTT | 8.62 ± 0.27
5 | ATATATATATAAATATAAATATATATATATATATAT [CACACA_negctrl_site1685] | 10 ± 0.41
6 | ATAAATTATATTCAAGTGCATGTAACTTATTATTAT | 8.83 ± 0.11
7 | AATAATTAAATATATTTATAACAGGAAAATATTTAT [XGTACX_negctrl_site175] | 8.49 ± 0.41
8 | GTTATAGAAGCATTCACACACACACCGACATACACA [CACACA_site4914] | 8.69 ± 0.49
9 | ACAAAGAACTATAATACACACAAGAATATATTGGAT [CACACA_site7771] | 8.78 ± 0.45
10 | AAAAAAATCACATAATATACTTTATTTTATTTTGTA [GTGCAC_negctrl_site562] | 7.89 ± 0.33
11 | TATATATAGAAACACACACACACATATATATATATT [CACACA_site2539] | 8.73 ± 0.67
12 | TTATAAGATTTATGTACACACATATACACCCCTCTA [CACACA_site4562] | 8.85 ± 0.42
13 | GTAAGAAACGGACACACACACATATATATATATATA [CACACA_site4593] | 10.2 ± 0.23
14 | AATATATTGCACCATTGGACCTGAATAATTCTTCCA [CACACA_negctrl_site1071] | 9.37 ± 0.47
15 | AAAAAAAAAAATTCCAGTACACACAATAATACTAAA [XGTACX_site5930] | 8.54 ± 0.37
16 | TAAATAATCATAGTTCTACACACCTATATTGCAAAA [CACACA_site8190] | 8.39 ± 0.4
17 | ATATATATAATATGATGTACTATTTTGATAAAAAAT [XGTACX_site3975] | 8.41 ± 0.13
18 | ATAATAAAACTCAAAGTGCATTAGAATAATTGTAAA | 8.61 ± 0.25
19 | ATTCATAAATATATTTGTACATATTATATATAAATA [XGTACX_site1907] | 8.55 ± 0.4
20 | AAGAACTCATTAATAATGTAATATTTTATAATTTAG [CACACA_negctrl_site321] | 7.93 ± 0.46
21 | TACAATTGTAAAGGCGCACACATATATATATATATA [CACACA_site1392] | 10.3 ± 0.59
22 | GATATTATTGCATATTTACACACGTACTAATTTAAA [CACACA_site8231] | 8.92 ± 0.33
23 | TTTTTATAATAAAAAAATATAACTATATTAAGCCAC [CACACA_negctrl_site555] | 8.54 ± 0.32

Row | Sequence | gcPBM binding intensity (ln)
24 | ACAATAAATATGTGGTTGCACTTATAATATATTTAT | 8.6 ± 0.38
25 | TATACATATTTCTATTGTACATAAACTAAATCTTCA [XGTACX_site28] | 8.27 ± 0.49
26 | TAATATATAACGTGCACACACACATTTACGTATGAA [CACACA_site1832] | 9.21 ± 0.26
27 | AGCACCCACCAACACACACACACACCCACCCACCCA [CACACA_site8011] | 8.9 ± 0.22
28 | CACAGTGATATAAAAACACACATGAATTAAAATTTC [CACACA_site4999] | 8.2 ± 0.5
29 | TATTTTTATCAATTCACACATAAATATATTTATATG [CACACA_site5547] | 8.38 ± 0.4
30 | GTTAATTATTAAATTTGTACTCATATATATTATATA [XGTACX_site6862] | 8.71 ± 0.38
31 | TCCCTTAATTTTGTGTGTACATATAATATATTTTTA [XGTACX_site2789] | 8.87 ± 0.23
32 | CATACATACAGACACACACACATATTTATATTTATA [CACACA_site6172] | 8.57 ± 0.5
33 | GGAATAGTGATATATACACACAAATACATATTTATA [CACACA_site6183] | 8.71 ± 0.49
34 | AATTAATAAGAAAGGTGTACAGAAAAAAAAAAATAT [XGTACX_site2106] | 9.06 ± 0.49
35 | AATTTTGATATATATTGTACGCATTTTTAAATGCCA [XGTACX_site7694] | 8.7 ± 0.38
36 | AAAAGAAATGACAAATTGGATAGATAATAGGGGGTA [GTGCAC_negctrl_site262] | 9.28 ± 0.44
37 | TTTAATAAAATTCTAGTGCAAAAAGGAAAAAACAAA [GTGCAC_site9642] | 9.07 ± 0.45
38 | AATATATAGGAAAAAGTGCAATAAATGAACAAAATA | 9.06 ± 0.26
39 | AAAAAAAAAAAAAATACACACATATATAAATAAATA [CACACA_site6459] | 8.31 ± 0.45
40 | TTATTTACTTATTGCACACATATAAAATATATTTAT [CACACA_site3101] | 9.065 ± 0.021
41 | TTCTTAATTTAAAATTGTACTTAAGTAATACTTATG [XGTACX_site3928] | 8.57 ± 0.34
42 | GAAGTTTTTTAAAGATGTACTTTTTAAAAATAATGT [XGTACX_site1975] | 8.3 ± 0.4
43 | CTATATATAAAATATTGTACTTATTTTTATTACATC [XGTACX_site3963] | 8.48 ± 0.39
44 | TATACATATGTATGCACACATACATACCCATATAAT [CACACA_site5842] | 8.57 ± 0.23
45 | TATTTAAAATATTAAATTTGTAAAGTTCGAGGGAAG [GTGCAC_negctrl_site337] | 8.52 ± 0.48
46 | TTTTCTCAATTTTGGTGTACTTTTTTCTTAACACAT [XGTACX_site8918] | 9.04 ± 0.42

Row | Sequence | gcPBM binding intensity (ln)
47 | GAAAAAAAAATATCTTGTACTTACATAACTATTGGT [XGTACX_site5326] | 8.28 ± 0.4
48 | AAAGGTTTATCTGATACACACATAAGTGATCAGGTT [CACACA_site6233] | 8.27 ± 0.32
49 | TAAATTAAAAAACATAAACTATTGGAAACGCATTGA [CACACA_negctrl_site935] | 8.62 ± 0.39
50 | ACACAATAAACATTATGTACATATAATGTTCTGTGT [XGTACX_site3381] | 8.3 ± 0.22
51 | AATGATAATCTATTATGTACACATATATTCTTATGT [XGTACX_site4148] | 8.34 ± 0.33
52 | ATTTATGGAAAAAGAACACACAATCAAACAAAAATA [CACACA_site3707] | 8.88 ± 0.61
53 | TTTTTTTTTTTTTGGTGTACCATAGGTAAAATGATT [XGTACX_site8020] | 8.39 ± 0.54
54 | ATATAAATGAATATATGTACATATATATATATATAT [XGTACX_site6361] | 10.1 ± 0.3
55 | TGACCTGTTCAGGTAACACACATATAAACCCATACA [CACACA_site31] | 8.67 ± 0.44
56 | ATGCTATAGGATCTTACACACATTTTTGTAAAAAAA [CACACA_site1868] | 8.39 ± 0.39
57 | TATATATATATATATGTGCACTGAAAGAATTATACA [GTGCAC_site9586] | 10.1 ± 0.14
58 | TTTTTCTAATTATGCACACATATCAAAATATTCAAT [CACACA_site2749] | 8.62 ± 0.028
59 | GCTCAATTTTTGGGTACACACAAATGTATAAGAATA [CACACA_site7178] | 8.61 ± 0.22
60 | TATTTATTTTATATATGTACATAATATATTCTTATA [XGTACX_site1619] | 8.62 ± 0.3
61 | ATATATATAGAAATATGTACGAAAAAAATATCACAT [XGTACX_site746] | 8.88 ± 0.73
62 | AAAATCAAAAAAACAAGTACAAATGTGGACTTTTTT [XGTACX_site5363] | 8.41 ± 0.29
63 | TGTTCTATGGTTTGTAGTACTTTAATAAATATAAAT [XGTACX_site7823] | 8.79 ± 0.33
64 | TCAAAAAAAAAAAAAAAAAAAAAAAAAAAAAAAAAA [CACACA_negctrl_site1753] | 8.04 ± 0.22
65 | AATAAGCTCACGTGTCGTACATTTTTTAAAACAACC [XGTACX_site4707] | 8.8 ± 0.37
66 | TATATTAAACATATATGTACATATTTTTTCTGAACA [XGTACX_site5390] | 8.53 ± 0.24
67 | AATATCAATGATGTTACATGCAAGAGAATCCACAAA [TGCATGCA_site678] | 9.07 ± 0.2
68 | ACCAAATCATATATAGCACACAAATTCTTTATTATT [CACACA_site8911] | 8.54 ± 0.37
69 | AATATTTTCTGTAATACTTCTTTTCAATTTATTTCG [CACACA_negctrl_site1390] | 8.76 ± 0.45

Row | Sequence | gcPBM binding intensity (ln)
70 | TATTGTTTTTTTGATTTTTTTTTTTTTTTTAATGAA [CACACA_negctrl_site824] | 8.14 ± 0.58
71 | ACGTAAAATTATTATTGTACATGTAAATAATTTGGA [XGTACX_site8154] | 8.57 ± 0.23
72 | ATTTACATTCACTTATGTACTTATATAATTTTATTT [XGTACX_site8150] | 8.77 ± 0.38
73 | TACATATGAAAATACACACATACATACATATATATA [CACACA_site1673] | 8.63 ± 0.15
74 | TATATAATATATATTTTATATTTGTAATAATTTTTT [GTGCAC_negctrl_site497] | 8.06 ± 0.31
75 | AATGTATAATTATAATGTACAAATAATATATAATAT [XGTACX_site5407] | 8.73 ± 0.42
76 | TAACTCCACAAATAATGTACATATATCACTATATTT [XGTACX_site4911] | 8.66 ± 0.33
77 | AAGCTTCCTTAATATACACACATATCTGAGTATATT [CACACA_site5939] | 8.49 ± 0.57
78 | AGATAAAAAAAGTACACACACACATATATATATATA [CACACA_site3072] | 10.2 ± 0.26
79 | CAAAATATAGATGACACACACAAAAAAAGTATATTA [CACACA_site6848] | 8.54 ± 0.51
80 | CATTTACCCTTATTAACACACAAAATATAATACGCT [CACACA_site2565] | 8.54 ± 0.4
81 | TTCTTGGAATACAAGTGTACTTTATTATTATTATTA [XGTACX_site5997] | 8.32 ± 0.4
82 | ATAGAAAGTGACAATTGTACATACATATTATATATA [XGTACX_site4390] | 8.71 ± 0.32
83 | TTTTTTTTTGCCTACTGTACTATTTTTGAGCTCACC [XGTACX_site7967] | 9.02 ± 0.35
84 | AAAAAAAAAAAAAAAAAAAAATTTCAATTATATTGA [GTGCAC_negctrl_site642] | 8.87 ± 0.14
85 | AAAATTATAATATATACACACATATATATATTAAAT [CACACA_site473] | 8.21 ± 0.35
86 | TTTTTTTTTTTGTTCACACATATACTTTTATTTTGG [CACACA_site4250] | 8.72 ± 0.47
87 | AATGCTATCATTAATGCACACATTTAAACTTAATAT [CACACA_site5878] | 8.595 ± 0.049
88 | TATAACGCTTGCAGCTGTACAAAAATAATCAAACTG [XGTACX_site2464] | 8.78 ± 0.54
89 | AAAAGATTTATACATACACACATATTATAGTCACAT [CACACA_site7701] | 8.63 ± 0.36
